{
  "source": "the supplement of paper PMC3334620",
  "note": "The full ranking holds about 33,000 sequences; the median of “E-score (-0.5 to 0.5)” is about -0.012, and the highest 2% start at about 0.27. The list shows a part of the results.",
  "data": [
    {"target": "T1, Vhr1 (UniProt P40522)", "T1 sequence": "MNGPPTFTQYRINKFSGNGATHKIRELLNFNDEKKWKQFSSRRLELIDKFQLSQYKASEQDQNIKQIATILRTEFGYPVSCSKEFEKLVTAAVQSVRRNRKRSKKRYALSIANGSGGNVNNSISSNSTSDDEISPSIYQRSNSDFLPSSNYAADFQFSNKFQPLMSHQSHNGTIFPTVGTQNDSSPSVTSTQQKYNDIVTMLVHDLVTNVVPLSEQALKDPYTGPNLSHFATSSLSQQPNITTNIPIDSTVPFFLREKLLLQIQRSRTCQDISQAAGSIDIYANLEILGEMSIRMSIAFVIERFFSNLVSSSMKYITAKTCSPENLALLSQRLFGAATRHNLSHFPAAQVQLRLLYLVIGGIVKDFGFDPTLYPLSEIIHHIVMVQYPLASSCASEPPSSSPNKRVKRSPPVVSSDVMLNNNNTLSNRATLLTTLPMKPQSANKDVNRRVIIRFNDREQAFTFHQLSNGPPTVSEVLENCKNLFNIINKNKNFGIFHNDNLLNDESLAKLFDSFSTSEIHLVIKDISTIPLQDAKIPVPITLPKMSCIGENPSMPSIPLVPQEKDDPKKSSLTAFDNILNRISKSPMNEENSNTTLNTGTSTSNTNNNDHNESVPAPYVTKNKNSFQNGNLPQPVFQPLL", "assay": "PBM E-score (8-mer binding enrichment) (E-score (-0.5 to 0.5)); higher = stronger / more preferred TF binding; most listed sequences are background and not binding sites", "conditions": "protein concentration: 200 nM; construct: GST-full length", "in_short": "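For each ungapped eight-base word taken together with its reverse complement, the Universal PBM Analysis Suite assigned an E-score. Binding data came from GST-tagged yeast transcription factors, applied at about 100-200 nM, on universal all-10-mer Agilent arrays made double-stranded by primer extension. Fluorescent anti-GST marked bound protein, and scans were normalised with masliner.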", "values": [
      {"sequence": "GCCCCAGC", "PBM E-score": -0.0658},
      {"sequence": "AAGTTCCC", "PBM E-score": -0.169},
      {"sequence": "GGTTCCAC", "PBM E-score": -0.0956},
      {"sequence": "CGCCCGGA", "PBM E-score": -0.0796},
      {"sequence": "CACTGCAA", "PBM E-score": 0.0472},
      {"sequence": "CCATAAGG", "PBM E-score": -0.0996},
      {"sequence": "AATCGGCG", "PBM E-score": -0.101},
      {"sequence": "TAAGGTCA", "PBM E-score": -0.0887},
      {"sequence": "ACGTCGCT", "PBM E-score": -0.18},
      {"sequence": "ACGTAGAA", "PBM E-score": 0.0335},
      {"sequence": "TGAATCAA", "PBM E-score": 0.267},
      {"sequence": "ATCATCTC", "PBM E-score": 0.201},
      {"sequence": "GTTCAACA", "PBM E-score": -0.0787},
      {"sequence": "AAACACCA", "PBM E-score": 0.129},
      {"sequence": "ACGGCCCA", "PBM E-score": 0.0113},
      {"sequence": "CAGTCTAG", "PBM E-score": -0.131},
      {"sequence": "AGTTTCCG", "PBM E-score": -0.0842},
      {"sequence": "ATTGGGCA", "PBM E-score": -0.189},
      {"sequence": "CTAGGTCA", "PBM E-score": 0.0199},
      {"sequence": "ATCGCTGG", "PBM E-score": -0.0087},
      {"sequence": "CACACGGA", "PBM E-score": 0.0457},
      {"sequence": "GGGCTACC", "PBM E-score": -0.136},
      {"sequence": "CTGCGACA", "PBM E-score": 0.0241},
      {"sequence": "ATAGTACG", "PBM E-score": 0.231},
      {"sequence": "CAATGATC", "PBM E-score": 0.0242},
      {"sequence": "ATTGGACA", "PBM E-score": 0.12},
      {"sequence": "AAGCCAAG", "PBM E-score": -0.0392},
      {"sequence": "CATCGATG", "PBM E-score": 0.302},
      {"sequence": "ATGTAGAC", "PBM E-score": 0.0122},
      {"sequence": "ATAGTTAG", "PBM E-score": 0.0663},
      {"sequence": "TAGGATGA", "PBM E-score": 0.17},
      {"sequence": "GTATTGTA", "PBM E-score": 0.0913},
      {"sequence": "CTCAAGAG", "PBM E-score": -0.287},
      {"sequence": "AGCTCTAA", "PBM E-score": -0.127},
      {"sequence": "AGCATGCA", "PBM E-score": 0.0173},
      {"sequence": "CACTAATA", "PBM E-score": 0.179},
      {"sequence": "AGACACCT", "PBM E-score": 0.0122},
      {"sequence": "CCTTACCG", "PBM E-score": -0.0858},
      {"sequence": "ATATTGTA", "PBM E-score": 0.211},
      {"sequence": "AGTTTGAA", "PBM E-score": -0.087},
      {"sequence": "CTCTCAGC", "PBM E-score": -0.233},
      {"sequence": "CCCGCTCG", "PBM E-score": -0.0213},
      {"sequence": "ACGCAGAA", "PBM E-score": 0.00834},
      {"sequence": "ACAATTGA", "PBM E-score": 0.0612},
      {"sequence": "GTTTAAGA", "PBM E-score": -0.163},
      {"sequence": "ACCGCAGC", "PBM E-score": 0.132},
      {"sequence": "AGATTAAC", "PBM E-score": -0.063},
      {"sequence": "ATACCAGG", "PBM E-score": -0.0349},
      {"sequence": "CCACGGGC", "PBM E-score": 0.0619},
      {"sequence": "GTCTGGTA", "PBM E-score": 0.0181},
      {"sequence": "GATGAAGC", "PBM E-score": 0.00702},
      {"sequence": "GGCTCGAA", "PBM E-score": -0.0341},
      {"sequence": "TCTACCCA", "PBM E-score": 0.239},
      {"sequence": "GAGGACCC", "PBM E-score": -0.0811},
      {"sequence": "ATAATCAG", "PBM E-score": 0.0967},
      {"sequence": "CATGGGTA", "PBM E-score": 0.27},
      {"sequence": "CGTATGAC", "PBM E-score": 0.142},
      {"sequence": "ACCTAGCG", "PBM E-score": -0.191},
      {"sequence": "ATAGCTGG", "PBM E-score": -0.0684},
      {"sequence": "AGGGGCGG", "PBM E-score": 0.348},
      {"sequence": "CAATAGGG", "PBM E-score": 0.0965},
      {"sequence": "CGAGTCCC", "PBM E-score": 0.186},
      {"sequence": "ACATTGTC", "PBM E-score": 0.21},
      {"sequence": "AAACCCAC", "PBM E-score": 0.209},
      {"sequence": "CACGTAAG", "PBM E-score": -0.163},
      {"sequence": "CCGCTGTC", "PBM E-score": -0.0214},
      {"sequence": "AAGCCTGC", "PBM E-score": -0.0256},
      {"sequence": "ATTGACAA", "PBM E-score": -0.136},
      {"sequence": "TATACCGA", "PBM E-score": 0.015},
      {"sequence": "CCAGCAAA", "PBM E-score": 0.165},
      {"sequence": "AAATTTGC", "PBM E-score": -0.273},
      {"sequence": "AAATACTA", "PBM E-score": -0.0647},
      {"sequence": "TAACAACA", "PBM E-score": 0.0828},
      {"sequence": "CTTGTTGC", "PBM E-score": 0.106},
      {"sequence": "ATTAGCCG", "PBM E-score": 0.0068},
      {"sequence": "CACGTGCG", "PBM E-score": -0.0625},
      {"sequence": "CACCTCCA", "PBM E-score": 0.0657},
      {"sequence": "ACACGTTA", "PBM E-score": -0.105},
      {"sequence": "AAAAATTC", "PBM E-score": -0.198},
      {"sequence": "AAAAGCAC", "PBM E-score": -0.262},
      {"sequence": "ACCATAGC", "PBM E-score": 0.081},
      {"sequence": "CTCTTTGC", "PBM E-score": -0.2},
      {"sequence": "AACAGTTC", "PBM E-score": 0.0166},
      {"sequence": "GTTAACAA", "PBM E-score": 0.0338},
      {"sequence": "CGGTGCAG", "PBM E-score": -0.198},
      {"sequence": "ACCTCTAC", "PBM E-score": -0.0884},
      {"sequence": "GGACCCCA", "PBM E-score": 0.136},
      {"sequence": "CAACTTTC", "PBM E-score": -0.0821},
      {"sequence": "GAGAGGTA", "PBM E-score": -0.109},
      {"sequence": "GTAGATTA", "PBM E-score": 0.128},
      {"sequence": "CTAGACAC", "PBM E-score": -0.0101},
      {"sequence": "ATAGGCTA", "PBM E-score": -0.0189},
      {"sequence": "CCTAATTC", "PBM E-score": -0.0361},
      {"sequence": "TGCAGGAA", "PBM E-score": 0.041},
      {"sequence": "AAAAACCG", "PBM E-score": -0.111},
      {"sequence": "AAGACGGA", "PBM E-score": 0.0362},
      {"sequence": "TATCTGAA", "PBM E-score": -0.161},
      {"sequence": "CTCGACCC", "PBM E-score": 0.259},
      {"sequence": "ATAGGAGC", "PBM E-score": -0.0762},
      {"sequence": "AATTTCGA", "PBM E-score": -0.149},
      {"sequence": "GAAGAGAA", "PBM E-score": -0.115},
      {"sequence": "CATATGGG", "PBM E-score": 0.263},
      {"sequence": "CAAATCAC", "PBM E-score": 0.0735},
      {"sequence": "AGATGCCT", "PBM E-score": -0.203},
      {"sequence": "AGTAAACG", "PBM E-score": -0.00785},
      {"sequence": "CGATGAAA", "PBM E-score": -0.0595},
      {"sequence": "AATACTTC", "PBM E-score": -0.0901},
      {"sequence": "CGTAACCC", "PBM E-score": -0.0872},
      {"sequence": "ACATCGTC", "PBM E-score": 0.217},
      {"sequence": "CATTGTCC", "PBM E-score": -0.0189}
    ]}
  ]
}
